Reference: the supplement of paper PMC9151546
Many values rest on one well or one pass, so single values are uncertain.

Columns and labels:
CHO-K1 [1] = experiment: hypodiploid nuclei frequency (% of nucleated events); higher = more hypodiploid events (aneugenic)
Procedure: (§1)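 Flow-cytometric in vitro micronucleus assay (Litron MicroFlow) in CHO-K1 cells in 96-well plates, 19 concentrations (4.5-200 µM, n=1 per concentration). Without S9, cells were exposed for 24 h and sampled at 48 h. With Aroclor 1254-induced rat liver S9, cells were exposed for 3-4 h and sampled at 27-28 h. Read-outs are %MN and %hypodiploid nuclei relative to nucleated events, and relative survival as the nuclei-to-bead ratio versus the 1% DMSO vehicle control (x100).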

CHO-K1 [2] = experiment: micronucleus frequency (% of nucleated events); higher = more micronuclei (genotoxic)
CHO-K1 [3] = experiment: relative survival (nuclei to bead ratio vs DMSO control) (% of vehicle control); higher = more surviving cells
Procedure: as §1
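For hypodiploid nuclei frequency (% of nucleated events) in this document: hypodiploid nuclei gated on a flow cytometer with 488 nm excitation after SYTOX Green staining, cultures at 37 °C, positive controls vinblastine without S9 and cyclophosphamide with S9.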
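For micronucleus frequency (% of nucleated events) in this document: cells lysed with nuclei stained by SYTOX Green, then micronucleus-gated events counted against nucleated events by flow cytometry with 488 nm excitation.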
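For relative survival (nuclei to bead ratio vs DMSO control) in this document: Lysed-cell nuclei stained with SYTOX Green and counted against counting beads by flow cytometry at 488 nm excitation, with vinblastine (no S9) and cyclophosphamide (plus S9) as positive controls.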

Nc1ccc([N+](=O)[O-])cc1 [4-Nitroaniline]
Settings | hypodiploid nuclei frequency, CHO-K1 [1] [%] | micronucleus frequency, CHO-K1 [2] [%] | relative survival, CHO-K1 [3]
concentration: 4.5 (µM), S9 metabolic activation: with S9, exposure time: 3-4 hours | 0.34 | 1.56 | 85.9
concentration: 4.5 (µM), S9 metabolic activation: without S9, exposure time: 24 hours | 0.66 | 1.72 | 87.8
concentration: 5.63 (µM), S9 metabolic activation: with S9, exposure time: 3-4 hours | 0.2 | 1.88 | 90.6
concentration: 5.63 (µM), S9 metabolic activation: without S9, exposure time: 24 hours | 0.54 | 1.46 | 78.4
concentration: 7.04 (µM), S9 metabolic activation: with S9, exposure time: 3-4 hours | 0.24 | 1.62 | 84.9
concentration: 7.04 (µM), S9 metabolic activation: without S9, exposure time: 24 hours | 0.82 | 1.48 | 87.4
concentration: 8.8 (µM), S9 metabolic activation: with S9, exposure time: 3-4 hours | 0.14 | 0.92 | 98.5
concentration: 8.8 (µM), S9 metabolic activation: without S9, exposure time: 24 hours | 0.56 | 1.76 | 103
concentration: 11 (µM), S9 metabolic activation: with S9, exposure time: 3-4 hours | 0.22 | 1.4 | 91.5
concentration: 11 (µM), S9 metabolic activation: without S9, exposure time: 24 hours | 0.46 | 1.88 | 86
concentration: 13.7 (µM), S9 metabolic activation: with S9, exposure time: 3-4 hours | 0.18 | 1.54 | 73.6
concentration: 13.7 (µM), S9 metabolic activation: without S9, exposure time: 24 hours | 0.68 | 1.5 | 73.6
concentration: 17.2 (µM), S9 metabolic activation: with S9, exposure time: 3-4 hours | 0.24 | 1.62 | 85.2
concentration: 17.2 (µM), S9 metabolic activation: without S9, exposure time: 24 hours | 0.54 | 1.52 | 69.9
concentration: 21.5 (µM), S9 metabolic activation: with S9, exposure time: 3-4 hours | 0.28 | 1.26 | 73.2
concentration: 21.5 (µM), S9 metabolic activation: without S9, exposure time: 24 hours | 0.62 | 1.42 | 88.5
concentration: 26.8 (µM), S9 metabolic activation: with S9, exposure time: 3-4 hours | 0.3 | 1.38 | 108
concentration: 26.8 (µM), S9 metabolic activation: without S9, exposure time: 24 hours | 0.66 | 2.36 | 89.7
concentration: 33.6 (µM), S9 metabolic activation: with S9, exposure time: 3-4 hours | 0.18 | 1.12 | 106
concentration: 33.6 (µM), S9 metabolic activation: without S9, exposure time: 24 hours | 0.86 | 1.66 | 99.2
concentration: 41.9 (µM), S9 metabolic activation: with S9, exposure time: 3-4 hours | 0.28 | 1.64 | 113
concentration: 41.9 (µM), S9 metabolic activation: without S9, exposure time: 24 hours | 0.82 | 2.18 | 97.8
concentration: 52.4 (µM), S9 metabolic activation: with S9, exposure time: 3-4 hours | 0.18 | 1.44 | 96.9
concentration: 52.4 (µM), S9 metabolic activation: without S9, exposure time: 24 hours | 0.7 | 2.2 | 90.5
concentration: 65.5 (µM), S9 metabolic activation: with S9, exposure time: 3-4 hours | 0.26 | 1.82 | 102
concentration: 65.5 (µM), S9 metabolic activation: without S9, exposure time: 24 hours | 0.78 | 2.48 | 106
concentration: 81.9 (µM), S9 metabolic activation: with S9, exposure time: 3-4 hours | 0.32 | 1.42 | 89.8
concentration: 81.9 (µM), S9 metabolic activation: without S9, exposure time: 24 hours | 0.84 | 1.96 | 89.3
concentration: 102 (µM), S9 metabolic activation: with S9, exposure time: 3-4 hours | 0.16 | 1.84 | 93
concentration: 102 (µM), S9 metabolic activation: without S9, exposure time: 24 hours | 0.72 | 1.92 | 93.4
concentration: 128 (µM), S9 metabolic activation: with S9, exposure time: 3-4 hours | 0.12 | 1.14 | 97.5
concentration: 128 (µM), S9 metabolic activation: without S9, exposure time: 24 hours | 1.24 | 4.18 | 85.6
concentration: 160 (µM), S9 metabolic activation: with S9, exposure time: 3-4 hours | 0.22 | 1.36 | 104
concentration: 160 (µM), S9 metabolic activation: without S9, exposure time: 24 hours | 1.4 | 2.64 | 74.7
concentration: 200 (µM), S9 metabolic activation: with S9, exposure time: 3-4 hours | 0.14 | 1.18 | 92.7
concentration: 200 (µM), S9 metabolic activation: without S9, exposure time: 24 hours | 1.68 | 2.76 | 81.8

O=C(Nc1ccc(Cl)cc1)Nc1ccc(Cl)c(Cl)c1 [Triclocarban]
Settings | hypodiploid nuclei frequency, CHO-K1 [1] [%] | micronucleus frequency, CHO-K1 [2] [%] | relative survival, CHO-K1 [3]
concentration: 4.5 (µM), S9 metabolic activation: with S9, exposure time: 3-4 hours | 0.22 | 1.02 | 114
concentration: 4.5 (µM), S9 metabolic activation: without S9, exposure time: 24 hours | 0.86 | 1.22 | 92.8
concentration: 5.63 (µM), S9 metabolic activation: with S9, exposure time: 3-4 hours | 0.24 | 1.1 | 106
concentration: 5.63 (µM), S9 metabolic activation: without S9, exposure time: 24 hours | 0.64 | 1.32 | 90.5
concentration: 7.04 (µM), S9 metabolic activation: with S9, exposure time: 3-4 hours | 0.34 | 0.94 | 94
concentration: 7.04 (µM), S9 metabolic activation: without S9, exposure time: 24 hours | 1.12 | 1.66 | 78.4
concentration: 8.8 (µM), S9 metabolic activation: with S9, exposure time: 3-4 hours | 0.16 | 1.04 | 116
concentration: 8.8 (µM), S9 metabolic activation: without S9, exposure time: 24 hours | 0.56 | 1.42 | 69.2
concentration: 11 (µM), S9 metabolic activation: with S9, exposure time: 3-4 hours | 0.28 | 0.96 | 108
concentration: 11 (µM), S9 metabolic activation: without S9, exposure time: 24 hours | 0.7 | 1.82 | 51.2
concentration: 13.7 (µM), S9 metabolic activation: with S9, exposure time: 3-4 hours | 0.4 | 1.08 | 103
concentration: 13.7 (µM), S9 metabolic activation: without S9, exposure time: 24 hours | 0.88 | 1.9 | 62.4
concentration: 17.2 (µM), S9 metabolic activation: with S9, exposure time: 3-4 hours | 0.14 | 1.26 | 109
concentration: 17.2 (µM), S9 metabolic activation: without S9, exposure time: 24 hours | 1.22 | 2.26 | 63
concentration: 21.5 (µM), S9 metabolic activation: with S9, exposure time: 3-4 hours | 0.22 | 1.02 | 88.2
concentration: 21.5 (µM), S9 metabolic activation: without S9, exposure time: 24 hours | 0.98 | 1.76 | 59.5
concentration: 26.8 (µM), S9 metabolic activation: with S9, exposure time: 3-4 hours | 0.2 | 1.18 | 104
concentration: 26.8 (µM), S9 metabolic activation: without S9, exposure time: 24 hours | 1.08 | 1.08 | 44.8
concentration: 33.6 (µM), S9 metabolic activation: with S9, exposure time: 3-4 hours | 0.24 | 2.22 | 76.6
concentration: 33.6 (µM), S9 metabolic activation: without S9, exposure time: 24 hours | – | – | 27.5
concentration: 41.9 (µM), S9 metabolic activation: with S9, exposure time: 3-4 hours | 0.48 | 1.52 | 91.3
concentration: 41.9 (µM), S9 metabolic activation: without S9, exposure time: 24 hours | – | – | 32.5
concentration: 52.4 (µM), S9 metabolic activation: with S9, exposure time: 3-4 hours | 0.3 | 0.98 | 85.4
concentration: 52.4 (µM), S9 metabolic activation: without S9, exposure time: 24 hours | 1.06 | 0.87 | 40
concentration: 65.5 (µM), S9 metabolic activation: with S9, exposure time: 3-4 hours | 0.14 | 1.16 | 88
concentration: 65.5 (µM), S9 metabolic activation: without S9, exposure time: 24 hours | – | – | 31.6
concentration: 81.9 (µM), S9 metabolic activation: with S9, exposure time: 3-4 hours | 0.22 | 1.78 | 89.7
concentration: 81.9 (µM), S9 metabolic activation: without S9, exposure time: 24 hours | 1.06 | 0.72 | 40.4
concentration: 102 (µM), S9 metabolic activation: with S9, exposure time: 3-4 hours | 0.24 | 1.7 | 92.3
concentration: 102 (µM), S9 metabolic activation: without S9, exposure time: 24 hours | – | – | 33.8
concentration: 128 (µM), S9 metabolic activation: with S9, exposure time: 3-4 hours | 0.48 | 1.62 | 92.1
concentration: 128 (µM), S9 metabolic activation: without S9, exposure time: 24 hours | 0.86 | 1.04 | 59.2
concentration: 160 (µM), S9 metabolic activation: with S9, exposure time: 3-4 hours | 0.4 | 1.9 | 80.5
concentration: 160 (µM), S9 metabolic activation: without S9, exposure time: 24 hours | 1.5 | 0.96 | 56.3
concentration: 200 (µM), S9 metabolic activation: with S9, exposure time: 3-4 hours | 0.26 | 1.44 | 88.7
concentration: 200 (µM), S9 metabolic activation: without S9, exposure time: 24 hours | 1.62 | 1.22 | 51.7
